Measurements: the supplement of paper PMC3334620
Over roughly 33,000 sequences, “E-score (-0.5 to 0.5)” has its median near -0.035; the highest 2% begin near 0.34. Some of the results follow.

The sequences below were run against T1, Mot3 (UniProt P54785) (assay: PBM E-score (8-mer binding enrichment) (E-score (-0.5 to 0.5)); higher = stronger / more preferred TF binding; most listed sequences are background and not binding sites). Conditions: protein concentration: 200 nM; construct: GST-full length.
T1 sequence: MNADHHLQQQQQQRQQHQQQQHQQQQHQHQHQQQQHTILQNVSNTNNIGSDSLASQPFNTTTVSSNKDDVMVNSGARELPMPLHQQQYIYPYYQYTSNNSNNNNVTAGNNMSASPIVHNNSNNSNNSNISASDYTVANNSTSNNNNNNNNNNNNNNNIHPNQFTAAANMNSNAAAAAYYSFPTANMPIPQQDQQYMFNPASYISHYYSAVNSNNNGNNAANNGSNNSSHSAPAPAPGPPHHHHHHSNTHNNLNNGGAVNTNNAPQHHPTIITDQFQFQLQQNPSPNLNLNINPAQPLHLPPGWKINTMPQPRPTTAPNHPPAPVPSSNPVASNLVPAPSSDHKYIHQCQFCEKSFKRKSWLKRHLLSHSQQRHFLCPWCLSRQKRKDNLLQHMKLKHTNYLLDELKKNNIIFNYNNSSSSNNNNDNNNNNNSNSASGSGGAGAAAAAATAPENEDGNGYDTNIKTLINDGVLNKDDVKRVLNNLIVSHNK
In short: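 PURExpress in vitro transcription/translation supplied GST-tagged yeast transcription factors, either full-length or DNA-binding domain. Applied at about 100-200 nM to universal all-10-mer Agilent arrays double-stranded by primer extension, the bound protein was detected with fluorescent anti-GST. E-scores, modified Wilcoxon-Mann-Whitney statistics, were given by the Universal PBM Analysis Suite to ungapped eight-base words pooled with their reverse complements after masliner normalisation.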

Sequence	PBM E-score
CCTCGGCC	-0.174
ACACCCAC	-0.00986
CGTTATAC	0.178
ATTGTGTG	0.0589
ACCTCCGA	-0.168
ACTGTGCG	-0.0668
ACAACTCT	0.0579
ACAACTGA	0.172
GCCCTCCA	-0.18
CCATTACG	0.177
ATCTACCC	-0.115
AGGTTTTG	-0.119
CCCACACG	-0.144
CACCCCCG	-0.053
ACCGGTGA	-0.16
TGTCCTAA	0.1
AAATACCA	0.0521
GAAGCTAC	-0.0982
AACACAAC	0.327
AAAGCAAT	0.13
GGGGCGAA	-0.255
GGCTTACA	0.167
AAGGGACA	-0.126
TACGTATA	0.309
GGATGGCA	-0.14

Sequence	PBM E-score
AGAGTATC	0.0365
AAGGGAAA	0.0842
CCGAAGCG	-0.237
ATGGTGTG	0.19
ACTTCCAC	-0.156
GCTTTCAC	-0.037
AACGGGGG	-0.143
ACGAGGCC	-0.122
ATCTAAGC	-0.00987
AGATCAAC	0.136
AGGTACCA	0.361
CATACTAG	-0.00788
ATGTTGCG	0.157
GCCGAGTA	-0.243
CCTGTATC	0.137
ATCCAACA	0.056
CAGTAGCA	-0.0935
ACCCTCCT	-0.259
GATTGAGC	0.0033
AATCAGGC	0.32
GTTAAAGA	0.205
AGCCCGTG	-0.242
CACGATGA	0.0984
AGTATGGA	-0.144
ACGTACGA	-0.0917

Sequence	PBM E-score
CAGCCGTA	-0.2
ATGGCGAG	-0.0823
GGGCCGGA	-0.353
ACCAGACG	-0.164
ATACCAGA	-0.0343
GGTGCAAA	-0.0974
AAGACCTG	-0.079
AAAGCGAG	0.0551
AAAGCACG	0.048
CGAAAGGA	0.0272
CACCCCCA	-0.127
GCATTCTA	0.0333
AACCGCTG	0.0102
AATACCAG	0.0512
GCGTGGGA	-0.201
CCAAACAC	0.158
ACGTGTCC	-0.0702
AGTAAGAA	0.22
AAGAGAAA	-0.0221
GCTCAACC	-0.152
GAAATTGA	-0.0504
AGTTATCC	-0.0517
TGCGGGAA	-0.161
CTAGCTGA	-0.0565
ATTCGGCC	-0.0495

Sequence	PBM E-score
GTCATCCA	-0.0138
GGGATTAC	0.133
ACTTTCCA	0.0165
CATTTAGA	-0.136
CTCAGAGA	-0.203
TGGTTAAA	0.108
TATGCATA	0.1
CTCTCGTC	-0.248
CGCACATC	-0.154
GAAGTGCC	0.152
AAGGAACA	0.453
AATGGCCG	-0.0872
ATATCGTG	0.0368
ATCAACCG	-0.0778
CCCCAGGC	-0.0396
ATTGTATC	0.0238
ACAGAGGG	-0.131
ACACTGCC	0.0227
ATTGGGAC	-0.1
CTCACGGA	-0.131
AGGACCCT	0.0161
CGTAAAAA	0.258
AGACACAA	0.124
ATGCTTTG	0.182
GTGAATAA	0.154

Sequence	PBM E-score
ACCTTTCT	0.124
CTTGTGCC	0.215
ATAAATGC	-0.0513
CCTCTACC	-0.223
ATAATTAT	0.29
CACAAGAA	0.217
GGGATACC	-0.287
ATAGTGTA	0.0713
AGGATGGG	-0.266
AAGCTTCT	-0.0639
AGTTTTCA	-0.204
AAGCAAAC	0.0811
AGATATAG	0.0531
AGGTCTAG	-0.221
CATAGCAG	-0.0912
GGTCGACA	0.183
ACGCGAGT	0.166
TGTCTGAA	0.157
ACGAGCTC	-0.117
GATACCAC	-0.0749
ACGGACAG	-0.134
ACCATTCC	-0.0593
AACGTACC	0.0808
AAAGAACG	0.0624
CTTTGTAA	0.355

Sequence	PBM E-score
AGCAAGGG	-0.137
GAGCCGGA	-0.234
AACATTGC	0.211
CCTCCCCA	-0.035
AGTAACCG	-0.109
CGTTGGAA	0.0673
CAATGAAA	0.0186
AACTCAGC	-0.0251
CGTAGGGA	-0.0699
CTCTATTA	0.0327
CAGAGGGG	-0.305
ATAATAGG	0.212
ATCATGTC	0.245
ACTGTACT	-0.252
ACCCTGTA	0.112
CGTTGGCC	-0.0208
AAGGCTAG	-0.0838
AGTGGTCC	-0.168
CCTGGTAC	0.178
GTAATGTA	0.317
CCAACAAG	0.0479
ATCGTTAA	0.101
CTATTTTA	0.0926
AGGGTTCA	-0.0118
GTTACACA	0.357

Sequence	PBM E-score
CGTTACAG	0.0725
CGCATAGC	-0.00771
ACTCGTCT	-0.143
AATTTCAC	0.121
ACATCTTA	0.0996
AAGCACTC	-0.129
GCGGAGCA	-0.156
ACGAAGAT	-0.0209
ACACTGTC	0.0431
AATTGAGC	0.0168
CCAACTCC	-0.135
CGGGTTAG	-0.132
CCCACGAC	-0.311
TCGGGGAA	-0.0325
AGTCCGCG	-0.156
AAGGTCAG	-0.068
GAGTGAGC	-0.0747
GGGAACAA	0.0629
CTATTGGC	-0.177
CGAGGGAA	-0.112
ATATCGAT	-0.0715
AAAGCTTC	-0.124
CTATGCTA	0.0604
TTAATGAA	0.132
GCTTCCCA	-0.219

Sequence	PBM E-score
CTATCAAC	0.164
GAGTCTAC	-0.15
CAGGGGGA	-0.16
ATGTTGAC	0.273
ACAGCAGA	-0.0541
CCAAAGGG	-0.158
CCTTGCGC	0.0763
CCTACACG	0.336
GGACATCC	-0.26
CCAATCCC	-0.127
CAACTCTC	-0.124
AAGTTAAC	0.222
CGTATGTC	0.0292
ACTATCTC	-0.11
GGCGTTTA	0.0195
GTTTACTA	0.258
CAAATTTG	-0.0298
TACACCCA	0.0243
GTTTCTAA	0.133
CAGTGCAA	0.00231
ACCAGTCA	0.0697
ATAAATTA	0.195
GTTGACGA	-0.0072
CACCATAC	-0.118
TGCAGAAA	0.139

Sequence	PBM E-score
GCGCGATA	0.0202
AGGACAAA	0.0828
CACGTTCA	0.251
CCCGGTTC	-0.167
CATCTATC	-0.0463
TCGGGACA	-0.06
AGTAGGTG	-0.049
AAACCGCA	-0.127
GACCCTGA	-0.105
AAATTGCA	0.00719
CGGAACGA	0.0162
GTCTAACA	0.0301
AGTTGTCC	-0.097
GTCTACGA	-0.112
ATTGAGTC	-0.076
ACAGCGGC	-0.112
CGATCTGA	-0.207
ACATATGT	0.242
AGCTCCCC	-0.366
CTCTCCAG	-0.333
GACCGCTC	-0.276
ACGGTGTC	-0.149
AAACCCGT	-0.069
CCGGCTTA	-0.165
ACGCTTCA	0.156

Sequence	PBM E-score
ATCTTCAC	-0.0574
GATTCAGA	-0.0558
CCCTACAG	-0.128
GGGGAATA	-0.0792
TAAAACAA	0.248
GATTAATA	0.0349
ACCAGACC	-0.0731
CCAACGAC	-0.13
ATAACGAC	-0.0163
GAGAATTA	0.0891
GTATGTTA	0.354
AAGATATT	-0.128
CGACTCGC	-0.225
GATTAGTA	0.133
AGAATCCA	-0.128
ACCTCCGG	-0.156
CAAACGTA	0.0816
ACTGACCT	-0.155
GGAAAACA	0.292
GATTGGGC	-0.0885
CTCTATCA	-0.114
GTACCGTA	-0.0156
CGCTATAC	0.081
GCGTCAGC	-0.147
GCTTGCCC	-0.185

Sequence	PBM E-score
CAGTACGG	-0.0449
ATGTTTTG	0.237
AGGCTACC	0.233
GTCTCAGA	-0.0701
CGATAAAC	-0.021
AGCCGAGA	-0.265
GGCACCCC	0.149
AACATCTG	-0.101
CTGCGAAG	-0.0675
AACAGAGC	-0.00619
CTGTGACA	0.0656
CCGCTGCA	-0.0673
ATCAGGAA	0.343
ATAGACGC	0.0691
AGAATCCG	-0.086
AATCTTCT	0.112
TCGGGAGA	-0.2
CAAGGAGG	0.0881
ATGCCCCA	-0.292
CGACTAGC	-0.233
CTGTCTTA	-0.0105
AGACACGG	0.225
ACATTTTG	0.147
ACGGTGTG	-0.176
GTACGCTA	0.0409

Sequence	PBM E-score
ACAGAAGA	0.0562
CCGAATAA	0.1
CCACAAAG	0.00356
ACCCACAT	-0.103
AAGATCAT	-0.0109
CTAAGTTA	0.0816
CCTCTGAC	-0.145
CGAGCCAC	-0.248
CAACAACC	0.0394
CGCGCAAG	-0.118
TCCTCAGA	-0.11
ACAACTAT	0.143
CATCTTAC	0.00682
TCTATAAA	-0.00901
CCCATGCA	0.0505
ACACTAGA	0.0241
ATAGTCGA	-0.0312
CGGATATC	-0.00865
AGCATAGG	0.0421
AGGGGATG	-0.18
AGATGCCG	-0.212
AAGTAGGC	0.176
ACGATGGA	0.097
ACCGCGAG	-0.123
TTAGTAAA	0.203

Sequence	PBM E-score
GACTAGCC	-0.329
CGGAACCA	-0.115
CGGCCCAA	-0.303
ATTGATGA	-0.0832
AATAAGCT	0.0276
ACCACCAT	-0.0985
GCCCTTTA	-0.0408
GCTTGTTA	0.179
CGTCTTGC	0.0394
GATTTAAA	-0.0352
GCCATTAC	0.063
CAGGCCCC	0.176
CATTCCGG	-0.148
CCAATATA	0.0238
ACCTATCG	0.0731
ATGGCTTA	-0.105
TTCACGAA	-0.117
ACAAGGGG	0.0989
TACTTTAA	0.0488
AGGGCTTC	-0.0325
ATCAAGAT	-0.0533
GGCCGATA	-0.236
CAGCAATA	0.0493
CCCCAGTC	-0.311
AAGCTAGG	-0.0844

Sequence	PBM E-score
GCTATAGC	-0.235
CCGGGCGC	-0.421
CATGAAAG	-0.0275
CATACGGA	-0.163
AGCGAGGA	-0.254
ATGTGTTC	0.152
GCTGCAAC	-0.242
GCGCAAAC	-0.123
AGGGCAAA	-0.0247
GTTAGGAA	0.188
TCCGGAAA	-0.0958
CGCACCCG	-0.155
TCGACGAA	-0.0651
GCCAGCAC	-0.245
TAGACGCA	-0.0723
ACTTAAAC	0.139
CAACTACC	-0.02
CGAGCGCA	-0.027
ATGCCCGC	-0.288
